172 sequences from paper PMC6212790 can be followed below.

This is one part of the list. At the low end of the ranking, values are background and their order means little.

In the experiment the target is T1, GST-Rok (full length) (UniProt O34857).
T1 sequence: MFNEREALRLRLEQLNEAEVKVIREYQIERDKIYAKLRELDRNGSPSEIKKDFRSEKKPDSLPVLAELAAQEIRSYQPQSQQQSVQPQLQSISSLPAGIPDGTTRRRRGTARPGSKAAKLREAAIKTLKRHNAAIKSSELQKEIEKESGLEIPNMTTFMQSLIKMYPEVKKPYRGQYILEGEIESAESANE
Put plainly: protein binding microarray.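 Further: rank score from −0.5 (least bound) to 0.5 (best bound).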 To be noted: Rok is a gene silencer of Bacillus subtilis; high values mean tight binding; most listed sequences are background and not binding sites; double strand, one strand shown.
Turning to TGAAATAA, the binding signal stood at 0.257 E-score. To CAAGCCCA belongs -0.0682 E-score; to AAAGCAAG, 0.0646 E-score. To AGTCACAG belongs -0.0307 E-score; to AACGGAGG, -0.132 E-score; to GTCATGTA, 0.264 E-score.

Take ATACGATG: the binding signal was determined as 0.0889 E-score.

Regarding CGCGTTCC, the binding signal was -0.127 E-score. Regarding ACGTAGAA, the binding signal worked out at 0.195 E-score. Sequence ACTTCGGC returned a binding signal of -0.201 E-score. Take GGGCTGGA: the binding signal was -0.292 E-score.

In turn, CTCGGGGA returned a binding signal of -0.285 E-score.

As to CGAGCCGA, the binding signal is -0.319 E-score. GATCCAAC yielded a binding signal of -0.17 E-score. The sequence ATAATCAT yielded a binding signal of 0.263 E-score. CAGGACCA: the binding signal was -0.143 E-score. The value for AAAGGGAT was -0.13 E-score. In turn, GCGTGCAA had a binding signal of -0.188 E-score. To AGAGGCAT belongs -0.0614 E-score; to CGCTCAAG, -0.0739 E-score. In turn, CAAGTAAC registered a binding signal of 0.0806 E-score. AGTAAGGA had a binding signal of -0.0123 E-score. Regarding CTGTCGCC, the binding signal was -0.196 E-score.

ACGCCGCG had a binding signal of -0.162 E-score. ACAGACAT: the binding signal was 0.0548 E-score. On to AGCCGCTG, for which the binding signal was -0.204 E-score. To CATCGGGA belongs -0.0816 E-score; to ATGCGGGG, -0.411 E-score.

Take AAGGTCAA: the binding signal was 0.000225 E-score. ATTGTAGG yielded a binding signal of 0.0383 E-score.

The sequence ACCCAAAT returned a binding signal of 0.022 E-score. In the case of CCGCCAAC, the binding signal is -0.337 E-score.

Sequence CTCAGTCC came in with a binding signal of -0.209 E-score. Turning to CAACTACC, the binding signal came out at 0.303 E-score. Sequence CCGCTTAG registered a binding signal of -0.177 E-score. To TCATCCGA belongs -0.00791 E-score; to AGGCGGTC, -0.384 E-score. For the sequence ACTTTGGG, the binding signal came out at 0.0189 E-score. In turn, GGGAAGGA displayed a binding signal of -0.176 E-score. For ATGAGCCC, the binding signal is -0.319 E-score. In turn, CCCGTTTA showed a binding signal of -0.207 E-score.

Sequence GCGACCAC gave a binding signal of -0.174 E-score. To ACTCCCCG belongs -0.189 E-score; to ACTTATCG, 0.173 E-score; to CTACAAAG, 0.145 E-score. The value for GGGCCCAC was -0.401 E-score; that for TAGTAGAA was 0.439 E-score. In turn, ACATCCTG displayed a binding signal of -0.081 E-score. AGCAGTGG gave a binding signal of -0.251 E-score.

On to TATTGACA, for which the binding signal is 0.0754 E-score.

The sequence ACCATTGA showed a binding signal of 0.0998 E-score. To AGGGAAAT belongs 0.0621 E-score; to CTTCCTGC, -0.0935 E-score. On to GACAAGCA, for which the binding signal was -0.182 E-score. With CTATGTGC, the binding signal was 0.0257 E-score. The value for CTCTTCCA was -0.235 E-score. As for ATGTCGTC, the binding signal is -0.209 E-score. GATATGGA: the binding signal was found to be 0.139 E-score. Sequence ACACACGC registered a binding signal of -0.15 E-score.

With TCCGTAAA, the binding signal is -0.0155 E-score. In the case of CTCGGATA, the binding signal is -0.00168 E-score. Take CTTACTTA: the binding signal worked out at 0.214 E-score. For the sequence TGCGATAA, the binding signal stood at 0.0492 E-score. AACATGCA came in with a binding signal of 0.201 E-score. For the sequence ATATTAAG, the binding signal worked out at 0.275 E-score.

Sequence AAATCAAT yielded a binding signal of 0.0975 E-score. Regarding CAACGACA, the binding signal came to 0.0825 E-score.

CACTCAAA yielded a binding signal of 0.0709 E-score. Sequence CTATCTCA displayed a binding signal of 0.258 E-score. As for ACGTTACA, the binding signal was found to be 0.205 E-score. The value for CTTTATTA was 0.158 E-score. With CTACCAAA, the binding signal amounted to 0.26 E-score. As to CACGGTAA, the binding signal is 0.155 E-score. Sequence GCGTACCA registered a binding signal of -0.205 E-score. On to AGATGAAA, for which the binding signal was -0.135 E-score.

Sequence TATTATGA returned a binding signal of 0.238 E-score.

Consider CGTAAGGA, for which the binding signal is -0.177 E-score. Sequence ATCTCGAA returned a binding signal of 0.106 E-score. With CAAGCTCA, the binding signal is -0.0535 E-score. CATAGTGG registered a binding signal of 0.0697 E-score. Regarding CGTTTAAG, the binding signal is -0.0976 E-score. Take TATCCGGA: the binding signal is 0.107 E-score. ATAATTGC returned a binding signal of 0.284 E-score. The value for CTGGATTA was 0.107 E-score. Consider AGCGCTAG, for which the binding signal amounted to 0.103 E-score. The value for GCCCCTAC was -0.167 E-score; that for CGGGCGTC was -0.325 E-score; that for CATTGGCA was -0.225 E-score. In the case of GATGAAGA, the binding signal is -0.251 E-score. Sequence AGTAAGTG gave a binding signal of 0.165 E-score. The value for CTACCTCC was 0.0507 E-score; that for AGGAAATC was -0.0356 E-score.

AAGGGTGT: the binding signal is -0.17 E-score. To AGCACGAT belongs -0.0157 E-score; to GCGCCCAC, -0.3 E-score. CACGCTCC: the binding signal is -0.215 E-score.

The sequence CTAGGGAC registered a binding signal of -0.221 E-score. With ATGCCAAC, the binding signal was -0.0803 E-score. In turn, GACGAGTC showed a binding signal of -0.104 E-score. ACTGGTCA had a binding signal of -0.0361 E-score. For the sequence CCCACGTC, the binding signal is -0.3 E-score.

CTCAGCAC gave a binding signal of -0.145 E-score. Sequence GGTTCCTA displayed a binding signal of -0.019 E-score. In the case of CCCCATAC, the binding signal is -0.182 E-score. For the sequence CAATAGGC, the binding signal is -0.0881 E-score. In turn, CCACCAAA registered a binding signal of 0.00945 E-score. With AGGTAGAA, the binding signal amounted to 0.419 E-score.

In the case of ACATACAC, the binding signal came to 0.234 E-score. On to CCAGATAC, for which the binding signal was determined as 0.043 E-score.

As to AGTGCACC, the binding signal is -0.246 E-score.

Regarding GGATTCAC, the binding signal was -0.0831 E-score. On to AGTAGACC, for which the binding signal is -0.0035 E-score. With AGGGCCCG, the binding signal is -0.284 E-score. Turning to AATAATCC, the binding signal is 0.00773 E-score. The value for AACTCAGC was -0.0423 E-score; that for AGCCAACA was -0.107 E-score. Sequence AGAATTCC yielded a binding signal of 0.221 E-score. As for CACGGATA, the binding signal was found to be 0.0453 E-score. Sequence GCACCGAC yielded a binding signal of -0.244 E-score. To AGAGTTAA belongs 0.0496 E-score.

Regarding AAAGTGCG, the binding signal is -0.151 E-score. Regarding ATGGCAAT, the binding signal worked out at 0.0495 E-score.

On to AACTAACA, for which the binding signal was determined as 0.113 E-score. To ATACAACC belongs 0.252 E-score; to AGAAGGCG, -0.203 E-score; to AAAAATTC, -0.0372 E-score. In turn, GCACCGCC came in with a binding signal of -0.332 E-score. The value for AAAAGATA was 0.12 E-score; that for ATTGTCGG was -0.0667 E-score.

Consider GAAGCGAC, for which the binding signal is -0.161 E-score. Turning to CTTTCTTC, the binding signal is -0.0764 E-score. The sequence CCCGTTAG showed a binding signal of -0.272 E-score.

As for CCTCTTAG, the binding signal was -0.0452 E-score.

As to TGCGACAA, the binding signal is -0.108 E-score. GGAGAAGA displayed a binding signal of -0.169 E-score. As to CTATAGAA, the binding signal stood at 0.275 E-score. The sequence ACAGTCCA gave a binding signal of -0.151 E-score. Sequence GAATGAAC had a binding signal of 0.024 E-score. The sequence AAACTCCC had a binding signal of -0.149 E-score. To CACCTCGA belongs -0.2 E-score; to CAGTCAGA, -0.146 E-score. Turning to ACTCGTCC, the binding signal is -0.144 E-score. For CGACCATC, the binding signal was determined as 0.0263 E-score. GACTGCCA had a binding signal of -0.232 E-score. The value for AGCCATAT was 0.162 E-score; that for CTACTGCA was 0.239 E-score.

Take GTAGATTA: the binding signal came to 0.317 E-score. In turn, TACCGAAA returned a binding signal of 0.225 E-score.

The sequence ATAATTGG displayed a binding signal of 0.22 E-score. Sequence TAAGCAGA yielded a binding signal of -0.253 E-score. The sequence ACCCCACG displayed a binding signal of -0.309 E-score. To TCTTCACA belongs 0.175 E-score; to AGGTCCGC, -0.204 E-score; to AGTTCAGG, 0.00951 E-score. The value for ACACTCGC was 0.0978 E-score; that for GGCTAGTA was 0.0598 E-score. AGTATTAC had a binding signal of 0.26 E-score. The sequence CCTAAAGG returned a binding signal of -0.326 E-score. Turning to AGACCCAT, the binding signal is -0.031 E-score. Regarding AGTCGCAG, the binding signal was -0.219 E-score. In turn, GTTTGAGA showed a binding signal of 0.00995 E-score.

The sequence CTTAAGGA had a binding signal of -0.228 E-score. The value for TGGCGAAA was 0.117 E-score; that for GAGATAGC was -0.0175 E-score. To GGCCTAGA belongs -0.132 E-score; to AAGCTTTG, 0.0468 E-score; to CGGTCACC, -0.248 E-score. In turn, AACAGCGG displayed a binding signal of -0.153 E-score. On to CGGGCACA, for which the binding signal is -0.164 E-score.

Regarding CAGACCGA, the binding signal is -0.19 E-score. On to GCTGGACC, for which the binding signal is -0.221 E-score.

Consider CCTTGGAC, for which the binding signal was -0.266 E-score.
